These results are taken from the BET-seq Pho4 binding data (Le et al. 2018).

This is one part of the list. These are noisy estimates, calculated here from bound and input reads.

The target of this experiment is T1, Pho4 (S. cerevisiae) (UniProt P07270).
T1 sequence: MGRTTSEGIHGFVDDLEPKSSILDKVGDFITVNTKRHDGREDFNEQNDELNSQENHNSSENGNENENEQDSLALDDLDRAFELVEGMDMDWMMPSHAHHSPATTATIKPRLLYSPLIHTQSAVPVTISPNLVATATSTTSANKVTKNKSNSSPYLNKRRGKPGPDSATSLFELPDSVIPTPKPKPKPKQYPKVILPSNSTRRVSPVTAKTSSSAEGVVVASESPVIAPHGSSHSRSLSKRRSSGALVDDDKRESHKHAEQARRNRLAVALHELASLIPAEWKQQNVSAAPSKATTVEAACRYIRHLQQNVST
The experiment is described as follows: relative binding free energy (BET-seq); higher = weaker binding. The conditions noted are these: reference: library average.
As for GGTGTCACGTGCGGTC, the “relative binding free energy” value was found to be 0.03 kcal/mol.

Take AGTGCCACGTGGTGGG: the “relative binding free energy” value is -0.15 kcal/mol. Turning to ATGAGCACGTGAGGCT, the “relative binding free energy” value came to 0.05 kcal/mol. Then CAGGGCACGTGGCGTA, with -0.14 kcal/mol; and CGTTGCACGTGCGAGT, with 0.02 kcal/mol. In the case of GGGAACACGTGATGGA, the “relative binding free energy” value was determined as 0.19 kcal/mol. For AATTGCACGTGGTAAT the value was -0.01 kcal/mol; for TGGAACACGTGTTGTT, 0.03 kcal/mol.

On to GGTGGCACGTGGGGTT, for which the “relative binding free energy” value was -0.04 kcal/mol. On to AGATCCACGTGTGGGA, for which the “relative binding free energy” value amounted to 0.11 kcal/mol. For ATATGCACGTGTCAGG the value was -0.12 kcal/mol; for GGGGCCACGTGATTGG, 0.09 kcal/mol.

AATTTCACGTGTGTGG: the “relative binding free energy” value was determined as 0.34 kcal/mol.

Turning to GTAGACACGTGAGAGT, the “relative binding free energy” value is 0.18 kcal/mol.

With TAATACACGTGGTATT, the “relative binding free energy” value was -0.07 kcal/mol. Then TTTAGCACGTGTTACG, with -0.03 kcal/mol; and TTGTTCACGTGGGTCC, with -0.04 kcal/mol; and ATAGTCACGTGATGGG, with 0.27 kcal/mol. For the sequence AATGTCACGTGGTACG, the “relative binding free energy” value was 0.02 kcal/mol. Then CAAGGCACGTGTAGGG, with 0 kcal/mol. In the case of TGGCGCACGTGCTGGA, the “relative binding free energy” value worked out at 0 kcal/mol. In the case of GGATTCACGTGGGTAG, the “relative binding free energy” value worked out at 0.26 kcal/mol. Then TTAGGCACGTGACTGA, with -0.01 kcal/mol; and TTGGACACGTGTATGA, with 0.06 kcal/mol. Then GTTTACACGTGAACGG, with 0.32 kcal/mol; and TCGTACACGTGGAGTG, with -0.04 kcal/mol; and AGTGTCACGTGGTTTG, with 0.05 kcal/mol. As for ACAATCACGTGTGTTG, the “relative binding free energy” value stood at 0.3 kcal/mol. For AAGATCACGTGAAGTT the value was 0.4 kcal/mol; for AGACTCACGTGTTTGG, 0.25 kcal/mol. Then TATATCACGTGGGGCA, with 0.05 kcal/mol.

For the sequence CTTGGCACGTGTGGCT, the “relative binding free energy” value was -0.07 kcal/mol. Consider GGGACCACGTGAGAGG, for which the “relative binding free energy” value turned out to be 0.17 kcal/mol.

Regarding ATGGTCACGTGTGTAC, the “relative binding free energy” value amounted to 0.17 kcal/mol.

On to AGGGGCACGTGCCGTA, for which the “relative binding free energy” value is -0.15 kcal/mol. For TTTTGCACGTGGTTGT the value was -0.01 kcal/mol; for GGGCTCACGTGAGCGG, 0.27 kcal/mol. Then TGACGCACGTGTTTGA, with -0.09 kcal/mol; and TGTAGCACGTGAGATA, with 0.03 kcal/mol. Then CTAATCACGTGGGGTA, with 0.06 kcal/mol; and ATTCTCACGTGGGTTT, with 0.22 kcal/mol; and TGTAGCACGTGGGCGG, with -0.24 kcal/mol. With TTTTGCACGTGCTTCT, the “relative binding free energy” value was -0.04 kcal/mol.

Turning to AGCTACACGTGTGGAG, the “relative binding free energy” value was 0.13 kcal/mol.

Consider ATTGGCACGTGATGGG, for which the “relative binding free energy” value was 0.1 kcal/mol. For the sequence TATGGCACGTGTGACG, the “relative binding free energy” value was determined as 0.11 kcal/mol. With GCAGGCACGTGTTGTG, the “relative binding free energy” value was -0.06 kcal/mol. For GCGGCCACGTGGGGTG the value was -0.17 kcal/mol.

In the case of TAATGCACGTGGTATA, the “relative binding free energy” value is -0.2 kcal/mol.

On to GGGTTCACGTGTACTT, for which the “relative binding free energy” value was 0.2 kcal/mol.

Regarding TATAGCACGTGTTTAT, the “relative binding free energy” value was -0.21 kcal/mol.

In the case of GATATCACGTGTTTGG, the “relative binding free energy” value worked out at 0.17 kcal/mol. For GTGTGCACGTGGGATA the value was -0.09 kcal/mol; for ATGGTCACGTGTGAAG, 0.19 kcal/mol; for TTAAGCACGTGAAGAG, 0.18 kcal/mol. For the sequence GAGTTCACGTGTTGAT, the “relative binding free energy” value amounted to 0.28 kcal/mol. Then AGGTGCACGTGCTGGA, with -0.16 kcal/mol. For GCGTGCACGTGGGGGT the value was -0.23 kcal/mol; for GGGACCACGTGCTGGT, 0.06 kcal/mol. As for GGGTCCACGTGCGGTG, the “relative binding free energy” value was determined as 0.02 kcal/mol.

Turning to CCGGTCACGTGGTGGT, the “relative binding free energy” value is 0.01 kcal/mol. Then TGGGCCACGTGCGTGC, with -0.19 kcal/mol. For GGTTACACGTGTTAGG the value was 0.24 kcal/mol; for CAGGTCACGTGTCTGG, 0.14 kcal/mol.

For the sequence CGGTGCACGTGTCGTG, the “relative binding free energy” value was -0.02 kcal/mol.

As to GATAGCACGTGGAATG, the “relative binding free energy” value was 0.11 kcal/mol. For TGTCGCACGTGGTTAA the value was -0.19 kcal/mol; for TGATTCACGTGTTTTG, 0.25 kcal/mol; for AGGGGCACGTGTAGCT, -0.12 kcal/mol. For GAGTCCACGTGTAGTT the value was 0.19 kcal/mol; for CATTGCACGTGTAAGG, 0.08 kcal/mol. For GTGTGCACGTGTTAAG the value was 0.03 kcal/mol; for TTTAACACGTGTAAGA, 0.15 kcal/mol; for TGAGGCACGTGCAAGG, -0.19 kcal/mol. As to AGGTTCACGTGTACAG, the “relative binding free energy” value is 0.26 kcal/mol. As to GGTATCACGTGGCAAG, the “relative binding free energy” value was determined as 0.1 kcal/mol. Then TGAATCACGTGTGTGA, with 0.13 kcal/mol; and GTTTGCACGTGGTGAA, with 0.07 kcal/mol. Then ATATACACGTGAGGGT, with 0.27 kcal/mol.

For the sequence GTTCTCACGTGTGCTG, the “relative binding free energy” value was 0.23 kcal/mol. For GAAGTCACGTGTTTAG the value was 0.18 kcal/mol; for AGCGTCACGTGGTGTT, -0.03 kcal/mol; for TGTAGCACGTGTCGTG, -0.07 kcal/mol.

Take TGGGTCACGTGCGCTC: the “relative binding free energy” value worked out at 0.14 kcal/mol.

For the sequence TCAGGCACGTGTCGTT, the “relative binding free energy” value stood at 0.09 kcal/mol.

With TAAATCACGTGTTTTC, the “relative binding free energy” value turned out to be 0.15 kcal/mol.

For the sequence GTTGTCACGTGTCAGA, the “relative binding free energy” value was determined as 0.03 kcal/mol. Then AGATACACGTGTTTTT, with 0.13 kcal/mol. Then TCGAGCACGTGGGGGC, with -0.19 kcal/mol; and AGATGCACGTGTGATT, with 0.07 kcal/mol; and TATATCACGTGAATAG, with 0.35 kcal/mol. Then TTTTGCACGTGAGTCT, with 0.24 kcal/mol; and ATGTTCACGTGCGTGT, with 0.14 kcal/mol; and AGCATCACGTGGGTTA, with -0.08 kcal/mol. With TGGGCCACGTGGAGGT, the “relative binding free energy” value was -0.13 kcal/mol. Then GGTGTCACGTGCGTGC, with 0.03 kcal/mol. Then AGGTGCACGTGTAGTC, with 0.03 kcal/mol; and TGTTACACGTGTTGGT, with 0.1 kcal/mol. Then CTGAACACGTGTGGTT, with 0 kcal/mol. For the sequence TTGTCCACGTGTTGCA, the “relative binding free energy” value came out at 0.04 kcal/mol. For GGATTCACGTGCCGTG the value was 0.21 kcal/mol; for CTGGTCACGTGCGGAA, 0.18 kcal/mol. Then TGCTGCACGTGGGGTT, with -0.2 kcal/mol; and TAGGACACGTGTATAT, with -0.05 kcal/mol; and GAGAACACGTGTTGGT, with 0.14 kcal/mol. Then TGGCACACGTGGGCGT, with -0.14 kcal/mol.

In the case of TCTTGCACGTGGGTCA, the “relative binding free energy” value is -0.18 kcal/mol. For TCGGTCACGTGTGTAC the value was 0.23 kcal/mol; for TAGTACACGTGGTAAG, 0.03 kcal/mol. On to CTTGGCACGTGACGGG, for which the “relative binding free energy” value was determined as 0.06 kcal/mol. On to CGTTACACGTGGCTGT, for which the “relative binding free energy” value was -0.05 kcal/mol. Then TTGGTCACGTGTGCGC, with 0.17 kcal/mol. For TAGATCACGTGTGTGT the value was 0.14 kcal/mol. Regarding GCAGGCACGTGTGTAG, the “relative binding free energy” value was -0.1 kcal/mol.

Regarding ATAATCACGTGGTAGT, the “relative binding free energy” value is 0 kcal/mol.

In the case of GTGTGCACGTGGACGA, the “relative binding free energy” value is -0.17 kcal/mol. For TATTGCACGTGTCGAG the value was -0.09 kcal/mol; for TTGTCCACGTGGGTTG, -0.08 kcal/mol. For ACAGGCACGTGAGTTA the value was 0.15 kcal/mol; for ACGGACACGTGTTGGG, 0.07 kcal/mol. Then TTAGTCACGTGAATCT, with 0.31 kcal/mol. Consider AGTGCCACGTGATAGT, for which the “relative binding free energy” value was -0.04 kcal/mol. Consider ATGTGCACGTGGGCCG, for which the “relative binding free energy” value was -0.25 kcal/mol.

On to GGTCGCACGTGGAGGC, for which the “relative binding free energy” value is -0.03 kcal/mol.

On to CTTTGCACGTGATGCG, for which the “relative binding free energy” value was 0.07 kcal/mol. As to TTCGACACGTGGATGT, the “relative binding free energy” value amounted to 0.04 kcal/mol. Then GACCGCACGTGTTGTG, with 0.05 kcal/mol; and AGTATCACGTGATTAT, with 0.18 kcal/mol; and TTAGGCACGTGGCGTG, with -0.24 kcal/mol. For ACGTGCACGTGAGGGG the value was 0.08 kcal/mol; for ATAGTCACGTGGTGTC, 0.03 kcal/mol; for TATAACACGTGAGTGT, 0.11 kcal/mol. For TTTACCACGTGATTAG the value was 0.17 kcal/mol. With CATTTCACGTGTGGTC, the “relative binding free energy” value was determined as 0.29 kcal/mol. For TGTGTCACGTGAGGCG the value was 0.3 kcal/mol; for GGGTTCACGTGCAGGC, 0.22 kcal/mol. For GAGTGCACGTGAGTAA the value was 0.23 kcal/mol. For AAAAACACGTGTTTTG the value was 0.02 kcal/mol; for TTCTTCACGTGGCAGG, 0.28 kcal/mol.

As for ATGGTCACGTGGGCGG, the “relative binding free energy” value came out at 0.08 kcal/mol. Then GGTTACACGTGATGGT, with 0.28 kcal/mol. On to GTCTGCACGTGTAAGT, for which the “relative binding free energy” value was found to be 0.17 kcal/mol.

As for AATTTCACGTGCGTGG, the “relative binding free energy” value amounted to 0.21 kcal/mol. For GTGGGCACGTGGAGTA the value was -0.07 kcal/mol; for GGATACACGTGGCGGT, 0.01 kcal/mol.

For TCTTGCACGTGTGTGG, the “relative binding free energy” value stood at 0.15 kcal/mol.
